Test results from publication PMC10114980, “Triple targeting of mutant EGFR^L858R/T790M, COX-2, and 15-LOX: design and synthesis of novel quinazolinone tethered phenyl urea derivatives for anti-inflammatory and anticancer evaluation” (Journal of Enzyme Inhibition and Medicinal Chemistry, 2023).

Columns and labels:
[1] = tested on: LPS-induced ROS production in RAW 264.7 cells; experiment: ROS production in LPS-activated RAW 264.7 macrophage cells (DCFH-DA); format: cell-based; details: LPS-activated RAW 264.7 cells
Experimental: TNF-α and IL-6 production were detected in RAW 264.7 macrophage cell culture supernatants following the induction of inflammation by LPS. Moreover, the probes of oxidative species 2,7-dichlorofluorescein diacetate (DCFH-DA) (Molecular Probes) and NO, 4-amino-5-methylamino-2,7-difluorofluorescein diacetate (DAF-FM diacetate) (Molecular Probes) were used to investigate the antioxidant and NO production inhibitory potential of the test compounds. Briefly, RAW 264.7 cells were cultured in black 96 well plates (200 000 cells/mL, 100 µl/well) for 24 h followed by the incubation with the individual test compounds or the reference drugs at different concentrations (12.5, 25, 50, and 100 µM) for 2 h at 37 °C. LPS was then added at a final concentration of 1 µg/mL for an additional 18 h. The cell culture supernatant was collected from cells treated with the different compounds at 25 µM to measure TNF-α and IL-6 levels (1:10 dilution) using DuoSet ELISA kits (R&D Systems, Minneapolis, MN) following the manufacturer’s instructions. Then, the plates were washed to perform ROS and NO detection assays as detailed in our previous studies[16]^,[27].

[2] = target: T1, human recombinant COX-2 (Homo sapiens, UniProt P35354); experiment: In vitro COX-2 inhibition assay kit (Cayman); format: biochemical; details: for COX-2 SI: Selectivity index = COX-1 IC50/COX-2 IC50; for IC50: human recombinant COX-2, mean ± SEM, n = 3 replicates
T1 sequence (P35354 18-604): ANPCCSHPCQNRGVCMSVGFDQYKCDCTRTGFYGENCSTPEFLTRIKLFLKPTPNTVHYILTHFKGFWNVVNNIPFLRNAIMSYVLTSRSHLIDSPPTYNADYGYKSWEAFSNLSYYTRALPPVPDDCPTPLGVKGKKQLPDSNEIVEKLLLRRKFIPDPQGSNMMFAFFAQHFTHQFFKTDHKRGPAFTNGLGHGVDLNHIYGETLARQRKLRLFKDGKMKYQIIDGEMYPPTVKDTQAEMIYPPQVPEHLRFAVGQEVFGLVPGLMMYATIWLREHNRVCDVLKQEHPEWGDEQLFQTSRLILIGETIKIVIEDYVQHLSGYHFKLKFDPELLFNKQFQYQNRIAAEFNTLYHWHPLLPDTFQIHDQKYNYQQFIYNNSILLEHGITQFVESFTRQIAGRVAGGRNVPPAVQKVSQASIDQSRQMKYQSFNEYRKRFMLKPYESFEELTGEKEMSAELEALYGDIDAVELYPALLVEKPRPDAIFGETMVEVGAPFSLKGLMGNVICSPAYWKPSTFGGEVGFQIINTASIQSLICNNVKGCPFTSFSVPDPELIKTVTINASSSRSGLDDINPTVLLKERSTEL

[3] = tested on: EGFR (WT); details: Figure 2; cited from earlier work
[4] = tested on: EGFR (L858R/T790M); details: Figure 2; cited from earlier work
[5] = target: T2, soybean 15-LOX (Glycine max, UniProt P08170); experiment: 15-LOX inhibitor screening assay (Cayman); format: biochemical; details: mean ± SEM, n = 3 replicates
T2 sequence (P08170 1-839): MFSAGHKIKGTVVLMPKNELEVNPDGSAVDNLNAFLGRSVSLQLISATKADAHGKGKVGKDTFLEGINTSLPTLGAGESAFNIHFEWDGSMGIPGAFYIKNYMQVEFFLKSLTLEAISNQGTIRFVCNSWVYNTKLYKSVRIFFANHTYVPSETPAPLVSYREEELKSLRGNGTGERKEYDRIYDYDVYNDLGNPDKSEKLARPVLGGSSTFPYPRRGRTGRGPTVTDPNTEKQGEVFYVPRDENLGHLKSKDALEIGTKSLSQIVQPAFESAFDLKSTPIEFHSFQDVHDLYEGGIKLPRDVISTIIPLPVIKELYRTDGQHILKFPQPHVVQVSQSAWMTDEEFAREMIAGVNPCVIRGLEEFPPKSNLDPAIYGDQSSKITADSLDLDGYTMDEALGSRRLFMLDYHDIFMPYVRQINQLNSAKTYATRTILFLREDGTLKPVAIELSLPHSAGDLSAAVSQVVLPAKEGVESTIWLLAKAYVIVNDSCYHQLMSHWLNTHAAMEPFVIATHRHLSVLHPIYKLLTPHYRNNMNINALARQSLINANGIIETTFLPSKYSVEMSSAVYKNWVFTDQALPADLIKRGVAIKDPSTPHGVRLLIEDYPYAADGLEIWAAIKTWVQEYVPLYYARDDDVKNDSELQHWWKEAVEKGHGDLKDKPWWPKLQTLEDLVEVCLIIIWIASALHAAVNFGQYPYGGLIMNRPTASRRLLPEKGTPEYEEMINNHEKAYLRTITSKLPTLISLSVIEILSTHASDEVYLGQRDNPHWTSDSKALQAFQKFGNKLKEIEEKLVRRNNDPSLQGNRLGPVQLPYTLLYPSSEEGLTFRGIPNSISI

[6] = target: T3, ovine COX-1 (Ovis aries, UniProt P05979); experiment: In vitro COX-1 inhibition assay kit (Cayman); format: biochemical; details: mean ± SEM, n = 3 replicates
T3 sequence (P05979 25-600): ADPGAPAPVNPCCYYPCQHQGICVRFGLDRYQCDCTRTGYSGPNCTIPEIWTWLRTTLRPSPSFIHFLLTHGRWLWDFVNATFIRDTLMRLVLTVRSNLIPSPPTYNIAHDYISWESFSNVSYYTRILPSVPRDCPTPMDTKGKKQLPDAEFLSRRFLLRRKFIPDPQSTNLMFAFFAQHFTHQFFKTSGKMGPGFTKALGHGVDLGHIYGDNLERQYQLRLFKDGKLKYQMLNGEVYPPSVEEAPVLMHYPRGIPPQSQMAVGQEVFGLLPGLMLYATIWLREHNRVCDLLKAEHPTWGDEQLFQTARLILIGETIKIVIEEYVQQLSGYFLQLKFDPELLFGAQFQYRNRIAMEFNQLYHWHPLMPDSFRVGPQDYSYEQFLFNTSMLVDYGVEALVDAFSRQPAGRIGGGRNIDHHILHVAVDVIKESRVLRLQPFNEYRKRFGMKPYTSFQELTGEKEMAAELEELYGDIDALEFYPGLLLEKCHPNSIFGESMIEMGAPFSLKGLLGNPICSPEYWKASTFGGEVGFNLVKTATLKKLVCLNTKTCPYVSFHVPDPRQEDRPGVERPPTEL

[7] = tested on: LPS-induced TNF-α production in RAW 264.7 cells; experiment: TNF-α production in LPS-activated RAW 264.7 cells (ELISA); format: cell-based; details: LPS-activated RAW 264.7 cells treated with 25 µM of the compound
[8] = tested on: LPS-induced IL-6 production in RAW 264.7 cells; experiment: IL-6 production in LPS-activated RAW 264.7 cells (ELISA); format: cell-based; details: LPS-activated RAW 264.7 cells treated with 25 µM of the compound
[9] = target: T4, wild-type EGFR (Homo sapiens, UniProt P00533); experiment: In vitro EGFR inhibition assay, wild type; format: biochemical
T4 construct: purchased AssayQuant Technologies, Inc. (Marlboro, MA, USA)

[10] = target: T5, double mutant EGFR^L858R/T790M (Homo sapiens, UniProt P00533, L858R/T790M); experiment: In vitro EGFR inhibition assay, double mutant; format: biochemical; details: double mutant EGFR
T5 construct: purchased AssayQuant Technologies, Inc. (Marlboro, MA, USA)

## COc1ccc(NC(=O)NN2CN(C)c3ccccc3C2=O)cc1 [Compound 6g, 1-(4-Methoxyphenyl)-3-(1-methyl-4-oxo-1,4-dihydroquinazolin-3(2H)-yl)urea]
other
  melting point: 219 to 221 °C
[1]; mean ± SEM, three replicates
  ROS IC50: neither compound 6e nor compound 6g inhibited ROS production significantly
[2]
  COX-2 SI: 0.78
  IC50: 3920 ± 1440 nM

## C=CC(=O)Nc1cccc(-n2c(-c3ccccc3)nc3cc(I)ccc3c2=O)c1 [F]
[3]
  IC50: 26 nM
[4]
  IC50: 5.7 nM

## COc1ccc(NC(=O)NN2C(=O)c3ccccc3N(C)C2c2ccccc2)cc1 (stereo not shown) [Compound 6h, 1-(4-Methoxyphenyl)-3-(1-methyl-4-oxo-2-phenyl-1,4-dihydroquinazolin-3(2H)-yl)urea]
[5]
  IC50: 2030 ± 370 nM
other
  melting point: 196 to 198 °C
[6]
  IC50: 47500 ± 4990 nM
[2]
  COX-2 SI: 16.92
  IC50: 2810 ± 1200 nM
[7]
  TNF-α concentration: 720.60 pg/mL and 720.60 ± 4.90 pg/mL

## COc1ccc(NC(=O)NN2C(=O)c3ccccc3N(C)C2c2ccc([N+](=O)[O-])cc2)cc1 (stereo not shown) [Compound 6i, 1-(4-Methoxyphenyl)-3-(1-methyl-2-(4-nitrophenyl)-4-oxo-1,4-dihydroquinazolin-3(2H)-yl)urea]
[5]
  IC50: 2070 ± 270 nM
other
  melting point: 217 to 219 °C
[1]
  ROS inhibition, fold more potent than diclofenac: ≈ 8 fold
[6]
  IC50: 7630 ± 2070 nM
[8]
  IL-6 concentration: 84.60 pg/mL and 84.60 ± 2.67 pg/mL

## C=CC(=O)Nc1ccc2ncc(NC(=O)Nc3ccccc3)nc2c1 [H]
[3]
  IC50: 25 nM

## CC1N(NC(=O)Nc2ccccc2)C(=O)c2ccccc2N1C (stereo not shown) [Compound 6b, 1-(1,2-Dimethyl-4-oxo-1,4-dihydroquinazolin-3(2H)-yl)-3-phenylurea]
[5]
  IC50: 2320 ± 310 nM
[9]
  EGFR^WT IC50: did not show any inhibitory activity
other
  melting point: 161 to 163 °C
[6]
  IC50: 33600 ± 3170 nM
[2]
  IC50: > 100000 nM
[10]
  EGFR^L858R/T790M IC50: did not show any inhibitory activity
[7]
  TNF-α concentration: 779.60 pg/mL and 779.60 ± 7.41 pg/mL

## CN1CN(NC(=O)Nc2ccc(F)cc2)C(=O)c2ccccc21 [Compound 6k, 1-(4-Fluorophenyl)-3-(1-methyl-4-oxo-1,4-dihydroquinazolin-3(2H)-yl)urea]
[5]
  IC50: 2080 ± 330 nM
[9]
  EGFR^WT IC50: did not show any inhibitory activity
other
  melting point: 246 to 248 °C
[1]
  ROS inhibition, fold more potent than diclofenac: ≈ 8 fold
[6]
  IC50: 57700 ± 2410 nM
[2]
  COX-2 SI: 11.24
  IC50: 5130 ± 1370 nM
[10]
  EGFR^L858R/T790M IC50: did not show any inhibitory activity
[8]
  IL-6 concentration: 88.53 pg/mL and 88.53 ± 0.87 pg/mL

## COc1ccc(C2N(NC(=O)Nc3ccccc3)C(=O)c3ccccc3N2C)cc1 (stereo not shown) [Compound 6f, 1-(2-(4-Methoxyphenyl)-1-methyl-4-oxo-1,4-dihydroquinazolin-3(2H)-yl)-3-phenylurea]
[5]
  IC50: 2130 ± 260 nM
[9]
  EGFR^WT IC50: did not show any inhibitory activity
other
  melting point: 198 to 200 °C
[6]
  IC50: 3600 ± 1570 nM
[2]
  COX-2 SI: 1.69
  IC50: 2130 ± 1370 nM
[10]
  EGFR^L858R/T790M IC50: did not show any inhibitory activity

## Cc1ccc(-c2cc(C(F)(F)F)nn2-c2ccc(S(N)(=O)=O)cc2)cc1 [Celecoxib, celecoxib, reference compound]
[7]; listed as celecoxib
  TNF-α concentration: 383.3 pg/mL
[8]; listed as celecoxib
  IL-6 concentration: 176.4 pg/mL

Where “and” joins values, the source holds several entries; their conditions need not be identical. Equal entries are not always repeated.
